Molecular target: the molecule itself
Assay: FRET or BRET; homo-FRET (steady-state fluorescence anisotropy of EGFP, time-domain, TCSPC) at the plasma membrane of living transfected Jurkat cells on PLL-coated slides, 37 °C; semi-quantitative, calibrated by monomeric LAT and dimeric CD8α

B1: CD8α-EGFP (receptor)
chain: not shown
notes: EGFP is intracellular; also called dimeric control; source: Jurkat, transiently transfected, living cells; not shown: EGFP (with spacer GSGGGS), C-terminal, kept
- steady-state anisotropy, mean: 0.243
- steady-state anisotropy, median: 0.245

From paper PMC6515139, “Oligomeric Architecture of Mouse Activating Nkrp1 Receptors on Living Cells” (International Journal of Molecular Sciences, 2019)
